Experimental data from the antibiotic and cytotoxicity screens of Wong et al. (2023).
The list shows a part of the results.

Legend:
HSkMC = human skeletal muscle cells; assay: cytotoxicity call (relative viability < 0.9); conditions: 10 µM
HepG2 = assay: cytotoxicity call (relative viability < 0.9); conditions: 10 µM
S. aureus RN4220 = assay: growth inhibition call (relative growth <= 0.2); conditions: 50 µM

C[C@@H]1CN([C@@H](C)CO)S(=O)(=O)c2ccc(C#Cc3ccc(F)cc3)cc2O[C@H]1CN(C)C(=O)CN(C)C
inactive: cytotoxicity call (HSkMC) | cytotoxicity call (HepG2) | growth inhibition call (S. aureus RN4220)

COc1ccc(NC(=O)N(C)C[C@H]2Oc3cc(C#CCN(C)C)ccc3S(=O)(=O)N([C@H](C)CO)C[C@@H]2C)cc1
inactive: cytotoxicity call (HSkMC) | cytotoxicity call (HepG2) | growth inhibition call (S. aureus RN4220)

C(=N\c1ccc2ccccc2c1)/Nc1ccc2ccccc2c1
inactive: cytotoxicity call (HSkMC) | cytotoxicity call (HepG2) | growth inhibition call (S. aureus RN4220)

CN1CCN(C(=O)C[C@H]2C=C[C@@H](NC(=O)Cc3ccccn3)[C@H](CO)O2)CC1
inactive: cytotoxicity call (HSkMC) | cytotoxicity call (HepG2) | growth inhibition call (S. aureus RN4220)

C[C@@H]1CN([C@@H](C)CO)C(=O)c2c(c3ccccc3n2C)-c2ccccc2CO[C@H]1CN(C)Cc1ccc(Cl)c(Cl)c1
inactive: cytotoxicity call (HSkMC) | cytotoxicity call (HepG2) | growth inhibition call (S. aureus RN4220)

CC(C)=CCCC(C)=CCCC(C)=CCCC(C)=CCCC(C)=CCCC(C)=CCCC(C)=CCCC(C)=CCCC(C)=CCO
inactive: cytotoxicity call (HSkMC) | cytotoxicity call (HepG2) | growth inhibition call (S. aureus RN4220)

Cc1noc(C)c1S(=O)(=O)N(C)C[C@H]1Oc2ccc(NS(=O)(=O)c3cccs3)cc2CC(=O)N([C@H](C)CO)C[C@@H]1C
inactive: cytotoxicity call (HSkMC) | cytotoxicity call (HepG2) | growth inhibition call (S. aureus RN4220)

C#CCN(O[C@@H](/C=C/[C@@H](O)Cc1ccccc1)C1CC1)[C@@H](Cc1ccc(-n2cc(CCC(=O)NO)nn2)cc1)C(=O)OC
inactive: cytotoxicity call (HSkMC) | cytotoxicity call (HepG2) | growth inhibition call (S. aureus RN4220)

COc1ccc(NC(=O)N(C)C[C@@H]2Oc3ncc(C#C[C@H](C)O)cc3C(=O)N([C@H](C)CO)C[C@@H]2C)cc1
inactive: cytotoxicity call (HSkMC) | cytotoxicity call (HepG2) | growth inhibition call (S. aureus RN4220)

C[C@@H]1CCCCO[C@@H](CN(C)C(=O)c2ccncc2)[C@H](C)CN([C@H](C)CO)C(=O)c2cc(NC(=O)C3CCCCC3)ccc2O1
inactive: cytotoxicity call (HSkMC) | cytotoxicity call (HepG2) | growth inhibition call (S. aureus RN4220)

COc1ccc(C(=O)Oc2ccc(CCn3c(NC(=O)c4ccc(C(F)(F)F)cc4)nc4cc(C(=O)O)ccc43)cc2)cc1
inactive: cytotoxicity call (HSkMC) | cytotoxicity call (HepG2) | growth inhibition call (S. aureus RN4220)

C[C@@H]1CN([C@@H](C)CO)C(=O)Cc2cc(NS(=O)(=O)c3cccs3)ccc2O[C@@H]1CN(C)Cc1ccc(Oc2ccccc2)cc1
inactive: cytotoxicity call (HSkMC) | cytotoxicity call (HepG2) | growth inhibition call (S. aureus RN4220)

Cc1ccc(S(=O)(=O)N(C)C[C@@H]2OCCCC[C@@H](C)Oc3ccc(NC(=O)Nc4cccc5ccccc45)cc3C(=O)N([C@@H](C)CO)C[C@@H]2C)cc1
inactive: cytotoxicity call (HSkMC) | cytotoxicity call (HepG2) | growth inhibition call (S. aureus RN4220)
